# Results as given in the supplement of paper PMC8728848.
# This is one part of the list.
# B1: CvGal1 (Crassostrea virginica), A7Y0I5 (protein)
# chain: MTYQISKISQPFTSYIPNGLHIGKHLLLRGRVSYGTEAFAINLQQNPEPCNGEVAFHFNPRPGEQQCVRNSFDGGSWMDEERDQPHFPFDEGRSFTLRIEVAEEGFRTYVNGKPYVNFSHRLDLGNVHYLYLTEGAEFYDISYQDRYTLPYKSEIPQQMNVGKAVRIRGASQDNDGFSVNFACDPDNENCAFHFNPRPNEGVVVRNANLGGWGDEERDYEAEFPFHPYNYFDAMFICTDDKYLVHVNDKYFTEFNHRGGVDASSFFNIVGNLDIQDVEYFEPLEDDFVKTIPSGLVKGDVLIFRGFMKPGGDTFSINFMNGYSVEDDIAFHLNPRVGEGQVVMNCCMGGAWGDEEREDIPSPLADREPFEVKVVVKKNKFKVYVNGKKCMKFAARGNLEDIKGVNIKGEAYVYEVKLERKLEDSWEYLPGGFRVGGWVVVQAIPKKGSEGFAINFRTGSDEDSDIAFHFNPRLQENCTIRNSCAGGAWGGEERDQPDFPFEKKDTCEIAIQAQPDRFVTYVNGKRYIEFNHRLPLESITCVELTGRADFFEPKFF
# What was measured:
# Assay in all cases: glycan array binding signal (z-score within array); higher = stronger binding
# Details in all cases: glycan notation: IUPAC condensed, linker removed
# [1] = target: Neu5Ac(a2-3)Gal(b1-3)[Neu5Ac(a2-6)]GlcNAc(b1-3)[Fuc(a1-3)[Gal(b1-4)]GlcNAc(b1-6)]Gal(b1-4)Glc
# Summary of the method: (§1)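 Glycan array data came from 3228 arrays in the Consortium for Functional Glycomics database, and only arrays with an available protein sequence were kept. Glycan names were put into IUPAC-condensed notation, and columns mapping to the same glycan were averaged. The binding signal is a within-array Z-score, averaged across arrays of one protein sequence run at different concentrations or buffers and across linkers. A negative Z-score can be read as non-binding.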
# Neu5Ac(a2-3)Gal(b1-4)Glc = target: Neu5Ac(a2-3)Gal(b1-4)Glc
# Summary of the method: as §1
# [2] = target: Neu5Ac(a2-3)Gal(b1-4)GlcNAc
# Summary of the method: as §1
# [3] = target: Neu5Ac(a2-3)Gal(b1-4)GlcNAc(b1-2)Man
# Summary of the method: as §1
# [4] = target: Neu5Ac(a2-3)Gal(b1-4)GlcNAc(b1-2)Man(a1-3)[GlcNAc(b1-2)Man(b1-4)GlcNAc(b1-2)Man(a1-6)]Man(b1-4)GlcNAc(b1-4)GlcNAc
# Summary of the method: as §1
# [5] = target: Neu5Ac(a2-3)Gal(b1-4)GlcNAc(b1-2)Man(a1-3)[Neu5Ac(a2-3)Gal(b1-4)GlcNAc(b1-2)Man(a1-6)]Man(b1-4)GlcNAc(b1-4)[Fuc(a1-6)]GlcNAc
# Summary of the method: as §1
# [6] = target: Neu5Ac(a2-3)Gal(b1-4)GlcNAc(b1-2)Man(a1-3)[Neu5Ac(a2-6)Gal(b1-4)GlcNAc(b1-2)Man(a1-6)]Man(b1-4)GlcNAc(b1-4)GlcNAc
# Summary of the method: as §1
# [7] = target: Neu5Ac(a2-3)Gal(b1-4)GlcNAc(b1-2)[Neu5Ac(a2-3)Gal(b1-4)GlcNAc(b1-6)]Man(a1-6)[Neu5Ac(a2-3)Gal(b1-4)GlcNAc(b1-2)Man(a1-3)]Man(b1-4)GlcNAc(b1-4)GlcNAc
# Summary of the method: as §1
# [8] = target: Neu5Ac(a2-3)Gal(b1-4)GlcNAc(b1-3)Gal
# Summary of the method: as §1
# [9] = target: Neu5Ac(a2-3)Gal(b1-4)GlcNAc(b1-3)Gal(b1-3)GlcNAc
# Summary of the method: as §1
# [10] = target: Neu5Ac(a2-3)Gal(b1-4)GlcNAc(b1-3)Gal(b1-4)GlcNAc
# Summary of the method: as §1
# [11] = target: Neu5Ac(a2-3)Gal(b1-4)GlcNAc(b1-3)Gal(b1-4)GlcNAc(b1-3)Gal(b1-4)GlcNAc
# Summary of the method: as §1
# [12] = target: Neu5Ac(a2-3)Gal(b1-4)GlcNAc(b1-3)Gal(b1-4)[Fuc(a1-3)]GlcNAc
# Summary of the method: as §1
# [13] = target: Neu5Ac(a2-3)Gal(b1-4)GlcNAc(b1-3)GalNAc
# Summary of the method: as §1
# [14] = target: Neu5Ac(a2-3)Gal(b1-4)GlcNAc(b1-3)[Neu5Ac(a2-3)Gal(b1-4)GlcNAc(b1-6)]GalNAc
# Summary of the method: as §1
# [15] = target: Neu5Ac(a2-3)Gal(b1-4)GlcNAc(b1-6)GalNAc
# Summary of the method: as §1
# [16] = target: Neu5Ac(a2-3)Gal(b1-4)GlcNAc(b1-6)[Gal(b1-3)]GalNAc
# Summary of the method: as §1
# [17] = target: Neu5Ac(a2-3)Gal(b1-4)GlcNAc(b1-6)[Neu5Ac(a2-3)Gal(b1-3)]GalNAc
# Summary of the method: as §1
# [18] = target: Neu5Ac(a2-3)Gal(b1-4)GlcNAc6S
# Summary of the method: as §1
# [19] = target: Neu5Ac(a2-3)Gal(b1-4)[Fuc(a1-3)]GlcNAc
# Summary of the method: as §1
# [20] = target: Neu5Ac(a2-3)Gal(b1-4)[Fuc(a1-3)]GlcNAc(b1-3)Gal
# Summary of the method: as §1
# [21] = target: Neu5Ac(a2-3)Gal(b1-4)[Fuc(a1-3)]GlcNAc(b1-3)Gal(b1-4)GlcNAc
# Summary of the method: as §1
# [22] = target: Neu5Ac(a2-3)Gal(b1-4)[Fuc(a1-3)]GlcNAc(b1-3)Gal(b1-4)[Fuc(a1-3)]GlcNAc(b1-3)Gal(b1-4)[Fuc(a1-3)]GlcNAc
# Summary of the method: as §1
# [23] = target: Neu5Ac(a2-3)Gal(b1-4)[Fuc(a1-3)]GlcNAc(b1-3)GalNAc
# Summary of the method: as §1
# [24] = target: Neu5Ac(a2-3)Gal(b1-4)[Fuc(a1-3)]GlcNAc(b1-6)[Gal(b1-3)]GalNAc
# Summary of the method: as §1
# [25] = target: Neu5Ac(a2-3)Gal(b1-4)[Fuc(a1-3)]GlcNAc6S
# Summary of the method: as §1
# [26] = target: Neu5Ac(a2-3)Gal6S(b1-4)GlcNAc
# Summary of the method: as §1
# [27] = target: Neu5Ac(a2-3)Gal6S(b1-4)[Fuc(a1-3)]GlcNAc
# Summary of the method: as §1
# Neu5Ac(a2-3)GalNAc = target: Neu5Ac(a2-3)GalNAc
# Summary of the method: as §1
# [28] = target: Neu5Ac(a2-3)GalNAc(b1-4)GlcNAc
# Summary of the method: as §1
binder,measurement,setting,value
B1,glycan array binding signal (z-score),[1],-0.203
same,glycan array binding signal (z-score),Neu5Ac(a2-3)Gal(b1-4)Glc,-0.242
same,glycan array binding signal (z-score),[2],-0.218
same,glycan array binding signal (z-score),[3],-0.245
same,glycan array binding signal (z-score),[4],-0.225
same,glycan array binding signal (z-score),[5],-0.198
same,glycan array binding signal (z-score),[6],-0.244
same,glycan array binding signal (z-score),[7],-0.283
same,glycan array binding signal (z-score),[8],-0.237
same,glycan array binding signal (z-score),[9],-0.269
same,glycan array binding signal (z-score),[10],-0.269
same,glycan array binding signal (z-score),[11],-0.279
same,glycan array binding signal (z-score),[12],-0.285
same,glycan array binding signal (z-score),[13],-0.237
same,glycan array binding signal (z-score),[14],-0.281
same,glycan array binding signal (z-score),[15],-0.283
same,glycan array binding signal (z-score),[16],-0.281
same,glycan array binding signal (z-score),[17],-0.262
same,glycan array binding signal (z-score),[18],-0.265
same,glycan array binding signal (z-score),[19],-0.282
same,glycan array binding signal (z-score),[20],-0.246
same,glycan array binding signal (z-score),[21],-0.226
same,glycan array binding signal (z-score),[22],-0.271
same,glycan array binding signal (z-score),[23],-0.166
same,glycan array binding signal (z-score),[24],-0.255
same,glycan array binding signal (z-score),[25],-0.289
same,glycan array binding signal (z-score),[26],-0.288
same,glycan array binding signal (z-score),[27],-0.233
same,glycan array binding signal (z-score),Neu5Ac(a2-3)GalNAc,-0.266
same,glycan array binding signal (z-score),[28],-0.277
